Measured values taken from the antibiotic and cytotoxicity screens of Wong et al. (2023).
This is one part of the list.

Assays:
HSkMC = human skeletal muscle cells; assay: cytotoxicity call (relative viability < 0.9); conditions: 10 µM
HepG2 = assay: cytotoxicity call (relative viability < 0.9); conditions: 10 µM
S. aureus RN4220 = assay: growth inhibition call (relative growth <= 0.2); conditions: 50 µM

With Cc1ccc(S(=O)(=O)Nc2ccc3c(c2)CC(=O)N([C@H](C)CO)C[C@@H](C)[C@@H](CN(C)Cc2ccncc2)O3)cc1 the cytotoxicity call (HSkMC) was “inactive”, the cytotoxicity call (HepG2) was “active” and the growth inhibition call (S. aureus RN4220) was “inactive”.

For C[C@@H]1CN([C@@H](C)CO)C(=O)Cc2cc(NS(=O)(=O)c3ccc(Cl)cc3)ccc2O[C@@H]1CN(C)C, the cytotoxicity call (HSkMC) was “inactive”, the cytotoxicity call (HepG2) was “inactive” and the growth inhibition call (S. aureus RN4220) was “inactive”.

Cc1cccc(C)c1OCC(C)N.Cl (stereo not given) was tested, and the cytotoxicity call (HSkMC) was “inactive”, the cytotoxicity call (HepG2) was “active” and the growth inhibition call (S. aureus RN4220) was “inactive”.

In the case of CC(C)NC(=O)N(C)C[C@H]1OCc2cn(nn2)CCCC(=O)N([C@H](C)CO)C[C@H]1C, the cytotoxicity call (HSkMC) is reported as “inactive”, the cytotoxicity call (HepG2) is reported as “inactive” and the growth inhibition call (S. aureus RN4220) is reported as “inactive”.

In the case of COc1ccccc1S(=O)(=O)N1C[C@@H](O)COC[C@@H]2O[C@H](CC(=O)O)CC[C@H]21, the cytotoxicity call (HSkMC) is reported as “inactive”, the cytotoxicity call (HepG2) is reported as “inactive” and the growth inhibition call (S. aureus RN4220) is reported as “inactive”.

For CC(C)(C)NCCCCOc1ccc(Cl)cc1C(C)(C)C, the cytotoxicity call (HSkMC) was “inactive”, the cytotoxicity call (HepG2) was “active” and the growth inhibition call (S. aureus RN4220) was “inactive”.

CC(=O)[C@@]12C=CCC[C@@H]1C[C@@H](C(=O)Nc1c(C)cccc1Cl)N2C(=O)c1nc(C)oc1C(F)(F)F was tested, and the cytotoxicity call (HSkMC) was “inactive”, the cytotoxicity call (HepG2) was “inactive” and the growth inhibition call (S. aureus RN4220) was “inactive”.

With COC(=O)CCCCCCC(=O)Nc1ccc([C@H]2O[C@@H](CN(C)Cc3ccccc3)C[C@H](c3ccccc3)O2)cc1 the cytotoxicity call (HSkMC) was “inactive”, the cytotoxicity call (HepG2) was “inactive” and the growth inhibition call (S. aureus RN4220) was “inactive”.

C[C@@H]1CN([C@H](C)CO)C(=O)c2cc(NS(=O)(=O)c3cccs3)ccc2O[C@@H](C)CCCCO[C@H]1CN(C)Cc1ccccc1 was tested, and the cytotoxicity call (HSkMC) was “inactive”, the cytotoxicity call (HepG2) was “inactive” and the growth inhibition call (S. aureus RN4220) was “inactive”.

CCCCC(CC)COC(=O)CC(C(=O)OCC(CC)CCCC)S(=O)(=O)[O-].[Na+] (stereo not given) was tested, and the cytotoxicity call (HSkMC) was “inactive”, the cytotoxicity call (HepG2) was “inactive” and the growth inhibition call (S. aureus RN4220) was “inactive”.

For O=S(=O)(Nn1cnnc1)c1ccccc1, the cytotoxicity call (HSkMC) was “inactive”, the cytotoxicity call (HepG2) was “inactive” and the growth inhibition call (S. aureus RN4220) was “inactive”.

With C[C@H]1CN([C@@H](C)CO)S(=O)(=O)c2ccc(-c3cccc(C#N)c3)cc2O[C@@H]1CN(C)C(=O)c1cccnc1 the cytotoxicity call (HSkMC) was “inactive”, the cytotoxicity call (HepG2) was “inactive” and the growth inhibition call (S. aureus RN4220) was “inactive”.

With CNC(=O)C[C@@H]1CC[C@H]2[C@@H](COC[C@@H](O)CN2C(=O)c2ccc3c(c2)OCO3)O1 the cytotoxicity call (HSkMC) was “inactive”, the cytotoxicity call (HepG2) was “inactive” and the growth inhibition call (S. aureus RN4220) was “inactive”.

For Cc1noc(C)c1NC(=O)Nc1ccc2c(c1)C(=O)N([C@H](C)CO)C[C@@H](C)[C@H](CN(C)Cc1ccncc1)OCCCC[C@@H](C)O2, the cytotoxicity call (HSkMC) was “inactive”, the cytotoxicity call (HepG2) was “inactive” and the growth inhibition call (S. aureus RN4220) was “inactive”.

With O=C(C=Cc1ccccc1)c1ccc(OC2OC(CO)C(O)C(O)C2O)cc1O (stereo not given) the cytotoxicity call (HSkMC) was “inactive”, the cytotoxicity call (HepG2) was “inactive” and the growth inhibition call (S. aureus RN4220) was “inactive”.

CCNC(=O)C[C@@H]1C=C[C@H](NC(=O)C2CCOCC2)[C@@H](CO)O1 was tested, and the cytotoxicity call (HSkMC) was “inactive”, the cytotoxicity call (HepG2) was “inactive” and the growth inhibition call (S. aureus RN4220) was “inactive”.

With C[C@@H]1CN([C@H](C)CO)C(=O)c2cccc(NC(=O)Nc3cccc4ccccc34)c2O[C@H]1CN(C)C(=O)Nc1ccccc1 the cytotoxicity call (HSkMC) was “inactive”, the cytotoxicity call (HepG2) was “inactive” and the growth inhibition call (S. aureus RN4220) was “inactive”.

With CCc1nc2ccc(C(=O)Nc3cccc(OCC(=O)N(C)C)c3)cn2c1N(C)CCN1CCOCC1 the cytotoxicity call (HSkMC) was “inactive”, the cytotoxicity call (HepG2) was “inactive” and the growth inhibition call (S. aureus RN4220) was “inactive”.

With CCN1C(=O)[C@H]2[C@H]3[C@H](O)[C@H](O)C/C(=N\OC[C@@H](O)COCc4ccco4)[C@@H]3CC[C@H]2C1=O the cytotoxicity call (HSkMC) was “inactive”, the cytotoxicity call (HepG2) was “inactive” and the growth inhibition call (S. aureus RN4220) was “inactive”.

For C[C@H]1CN([C@@H](C)CO)C(=O)c2cc(NC(=O)C3CC3)ccc2O[C@H]1CN(C)S(=O)(=O)c1ccc(Cl)cc1, the cytotoxicity call (HSkMC) was “inactive”, the cytotoxicity call (HepG2) was “inactive” and the growth inhibition call (S. aureus RN4220) was “inactive”.

For C=C(O)C(=O)OCC, the cytotoxicity call (HSkMC) was “inactive”, the cytotoxicity call (HepG2) was “inactive” and the growth inhibition call (S. aureus RN4220) was “inactive”.

In the case of C[C@@H]1CN([C@@H](C)CO)C(=O)c2cc(NS(=O)(=O)c3cn(C)cn3)ccc2O[C@H]1CN(C)C(=O)Nc1ccc2c(c1)OCO2, the cytotoxicity call (HSkMC) is reported as “inactive”, the cytotoxicity call (HepG2) is reported as “inactive” and the growth inhibition call (S. aureus RN4220) is reported as “inactive”.

With Cc1noc(C)c1NC(=O)N(C)C[C@@H]1Oc2ccc(NC(=O)C3CC3)cc2C(=O)N([C@H](C)CO)C[C@H]1C the cytotoxicity call (HSkMC) was “inactive”, the cytotoxicity call (HepG2) was “inactive” and the growth inhibition call (S. aureus RN4220) was “inactive”.

In the case of CCS(=O)(=O)Nc1ccc2c(c1)C(=O)N(C)C[C@H](OC)[C@H](C)CN(Cc1nccs1)[C@@H](C)CO2, the cytotoxicity call (HSkMC) is reported as “inactive”, the cytotoxicity call (HepG2) is reported as “inactive” and the growth inhibition call (S. aureus RN4220) is reported as “inactive”.

In the case of COc1ccc(NC(=O)Nc2ccc3c(c2)C(=O)N([C@H](C)CO)C[C@H](C)[C@@H](CN(C)C(=O)Nc2ccc(C(F)(F)F)cc2)O3)cc1, the cytotoxicity call (HSkMC) is reported as “inactive”, the cytotoxicity call (HepG2) is reported as “inactive” and the growth inhibition call (S. aureus RN4220) is reported as “inactive”.

In the case of NC(=O)N1CCC[C@@H]1C(=O)O, the cytotoxicity call (HSkMC) is reported as “inactive”, the cytotoxicity call (HepG2) is reported as “inactive” and the growth inhibition call (S. aureus RN4220) is reported as “inactive”.

In the case of Cn1ccc(CO)n1, the cytotoxicity call (HSkMC) is reported as “inactive”, the cytotoxicity call (HepG2) is reported as “inactive” and the growth inhibition call (S. aureus RN4220) is reported as “inactive”.

With C[C@H]1CN([C@@H](C)CO)C(=O)CCCn2cc(nn2)CO[C@@H]1CN(C)S(=O)(=O)c1cn(C)cn1 the cytotoxicity call (HSkMC) was “inactive”, the cytotoxicity call (HepG2) was “inactive” and the growth inhibition call (S. aureus RN4220) was “inactive”.

With C[C@@H]1[C@H]2[C@H](O[C@@H]3O[C@H](CO)[C@@H](O)[C@H](O)[C@H]3O)OC=C(C(=O)O)[C@H]2C[C@@H]1OC(=O)/C=C/c1ccc(O)cc1 the cytotoxicity call (HSkMC) was “inactive”, the cytotoxicity call (HepG2) was “inactive” and the growth inhibition call (S. aureus RN4220) was “inactive”.

In the case of C[C@@H]1CCCCO[C@H](CN(C)C(=O)Nc2ccc3c(c2)OCO3)[C@H](C)CN([C@@H](C)CO)C(=O)c2cc(NC(=O)Nc3ccccc3)ccc2O1, the cytotoxicity call (HSkMC) is reported as “inactive”, the cytotoxicity call (HepG2) is reported as “inactive” and the growth inhibition call (S. aureus RN4220) is reported as “inactive”.
